The record followed here is PMC12136788.

The other results are listed elsewhere or left out.

T1: UNK ZnF1-6 (called full-length) (human, UniProt Q9C0B0 30-357)
T1 sequence: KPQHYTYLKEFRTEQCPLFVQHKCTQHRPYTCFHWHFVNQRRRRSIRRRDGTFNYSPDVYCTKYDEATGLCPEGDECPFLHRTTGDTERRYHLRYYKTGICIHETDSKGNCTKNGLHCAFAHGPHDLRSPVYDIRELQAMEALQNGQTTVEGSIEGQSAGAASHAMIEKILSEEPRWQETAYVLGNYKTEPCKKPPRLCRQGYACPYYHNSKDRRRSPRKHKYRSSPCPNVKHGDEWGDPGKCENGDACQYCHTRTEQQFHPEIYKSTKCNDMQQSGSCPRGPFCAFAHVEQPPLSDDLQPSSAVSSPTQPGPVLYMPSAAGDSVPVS

B1: chr15:58597255:58597356:-|3pUTR|ENSG00000137845|unk|FALSE|unique (ssRNA)
RNA: GGGAGUUCUACAGUCCGACGAUCUGGAAAAGGAACCCAAUUUUCUUAUGAACAGAUAUUUUUAACUUAAUGGCACAAAGUCUUAGAAUAUUAUUAUGUGCCCCGUGUUCCCUGUUCUUCGUUGCUGCAUUUUCUUCACUUGCACAACAGAGGAUUGAGCAUCA
B2: chr1:202941098:202941199:-|3pUTR|ENSG00000159346|msi1_unk|FALSE|overlapping (ssRNA)
RNA: GGGAGUUCUACAGUCCGACGAUCCCUCCCUUACCCCCAUCCUUAACUUUGUAUCCUGGCUUAUAACAGGCCAUCCAUUUUUGUAGCACACUUUUCAAAAACAAUUAUAUACCCUGGUCCCAUCUUUCUAGGGCCUGGAUCUGCCAACAGAGGAUUGAGCAUCA
B3: chr7:138585310:138585366:+|3pUTR|ENSG00000122779|msi1_unk|FALSE|overlapping (ssRNA)
RNA: GGGAGUUCUACAGUCCGACGAUCCUCUUUAAGUUGAAAAGUAAAAAAUAUAUGUGGUUUGGAUGUGUGCUUUAAUUCAGCUUUAGAAAUUAAUACCACUACCCGUGAAUUAUAUGGCCUGACAAUAUGAAUUAGGUGUACUGUCAACAGAGGAUUGAGCAUCA
B4: chr11:70485313:70487720:-|CDS|ENSG00000162105|control|control|control (ssRNA)
RNA: GGGAGUUCUACAGUCCGACGAUCUGGGGCGACGUCACAGAGAUCAAAAGCCCGAUUCUCUCAGGCCCAAAGGCAAACGUUAUUAGUGAAUUGAACUCUAUCCUACAGCAAAUGAACCGAGAGAAAUUGGCAAAGCCGGGGGAACAACAGAGGAUUGAGCAUCA
B5: chr9:101390727:101390839:-|CDS|ENSG00000136897|unk|total|mutant (ssRNA)
RNA: GGGAGUUCUACAGUCCGACGAUCCAGAAAAGAGAAAGAGCCAGUGGUUGUUGAGACAGCCGAAGAGAAAAAGGAACCUAUCCCCGUGUGUCCACCUUUACGAAGCCGAGCAUACACACCACCUGAAGAUCUCCAGAGUCGUUUCAACAGAGGAUUGAGCAUCA
B6: chr2:96301550:96301651:-|CDS|ENSG00000144028|msi1|FALSE|unique (ssRNA)
RNA: GGGAGUUCUACAGUCCGACGAUCAAGGCGAAAGGAGAUUGACCUGCUGCUGGGUCAAACAGAUGAUACCAGAUACCAUGUGCUAGUGAACCUGGGCAAAAAGAUCACAGACUAUGGUGGAGAUAAGGAAAUCCAAAAUAUGGGCAACAGAGGAUUGAGCAUCA
B7: chr21:43695798:43695899:+|3pUTR|ENSG00000160208|msi1|total|mutant (ssRNA)
RNA: GGGAGUUCUACAGUCCGACGAUCACAAUAUUUUGUAAAAUGAUGCUUCCCCCUUCUCCAUGGUCCCGUCAAUUUUGUACAAUCCGGUAUCUGACUUUACAAGUUUGUUAUCCUUUCUAAUUUUUACUGAACUGAAAGCACAAACAACAGAGGAUUGAGCAUCA
B8: chr2:216672738:216672882:-|3pUTR|ENSG00000115461|msi1|FALSE|unique (ssRNA)
RNA: GGGAGUUCUACAGUCCGACGAUCUUCUCUUAGGCUUUUGUUUCUAUUUCAAACAUACUUUCUUGGUUUUCUAAUGGAGUAUAUAGUUUAGUCAUUUCACAGACUCUGGCCUCCUCUCCUGAAAUCCUUUUGGAUGGGGAAAGGCAACAGAGGAUUGAGCAUCA
B9: chr15:90882754:90882855:+|3pUTR|ENSG00000140564|msi1_unk|total|mutant (ssRNA)
RNA: GGGAGUUCUACAGUCCGACGAUCCACUUUGUGAUUAUUUCACUUCCGAUGCUGAUGAUUUGUUUUUGUAUUUUUAAUGGGGGCCGCAGCUGGACUACCCACGUUCUCACACCCACCGUCCGCCCUGCUCCUCCCUGGCUGCCCCAACAGAGGAUUGAGCAUCA
B10: chr5:179730620:179730726:+|3pUTR|ENSG00000127022|msi1_unk|total|mutant (ssRNA)
RNA: GGGAGUUCUACAGUCCGACGAUCGAGCUUUAAAUCAUCCGAGCUUAAAUUGUCAGAUCGUUCAUUGCCUUUCCAGGGUUAUUCCGUAAAGUUUGUUGAAAACAAAAACGCCUUUUCUUGGUUCUUUUUUCAGUUAUUUUGAAGCAACAGAGGAUUGAGCAUCA
B11: chr13:52475664:52475769:+|3pUTR|ENSG00000136108|msi1|FALSE|bound_elsewhere (ssRNA)
RNA: GGGAGUUCUACAGUCCGACGAUCGCGUCCCUUGGACUGCCUGUUGAUUGAUGGAAAGUGUCUGCACUGACACUUUUCGUCAGUAGUCUGUAGUUUCGUGGCCUCUUUUGAUUAUAACUGGGGUCACCAAGAAGGUUUACUUAACAACAGAGGAUUGAGCAUCA
B12: chrX:155122998:155123099:+|3pUTR|ENSG00000185515|unk|total|mutant (ssRNA)
RNA: GGGAGUUCUACAGUCCGACGAUCCUACAUACACACAAAUGAAUGCAUGUAAAAUCUGGUGAUACUGAAUAAAGUCUGUGGUCCCGACCGCAGUAUAAUAUUAUUGUCAAUGUCUUGGAUGUGAAGUUGUGCUACCGUUACAAACAACAGAGGAUUGAGCAUCA
B13: chr1:150144965:150145066:+|3pUTR|ENSG00000136631|msi1|total|mutant (ssRNA)
RNA: GGGAGUUCUACAGUCCGACGAUCAGACUCCCAGAGUUGUCCUAACAAUAAGUCUGAGCCCAUCUCAACCCACUUUUCUCCGGCCGUCUUUAUGUAUCUGUCCGCACAAUCACUUCAGUUACUGAUGAAUUUUGUUGGGAUCUGCAACAGAGGAUUGAGCAUCA
B14: chr21:44851366:44851434:-|CDS_3pUTR|ENSG00000183255|msi1_unk|total|mutant (ssRNA)
RNA: GGGAGUUCUACAGUCCGACGAUCAGGACAGUCCUCUCGUCUUGCAGACUGGUGACCUUCUAUUCCCUGUUCAUCUCUGUUUCCCGAUUCCGUCACUUGAAAUAAGAAAUCUUUGGGGUUUGGGCUUUUUUAUACUCUUCUCAGCAACAGAGGAUUGAGCAUCA
B15: chr9:72354534:72354635:-|3pUTR|ENSG00000107372|msi1|FALSE|unique (ssRNA)
RNA: GGGAGUUCUACAGUCCGACGAUCGUCCUAGUUUUUACUUUUAUUCUUAAAGCAUUCAGUUUUGCUUUCAAUUUUAUGUACCUUAGUUCUGAGUUAGACCUGCAGAUGUGUACAGAUAGUUCAUAUUUAUGUAUUGCACAUAAUCAACAGAGGAUUGAGCAUCA
B16: chrX:100674576:100674677:+|3pUTR|ENSG00000102359|msi1|FALSE|bound_elsewhere (ssRNA)
RNA: GGGAGUUCUACAGUCCGACGAUCUUGCAAUCCACACCAAAUCAAUCUUUGAAAACAUUCCUCCAUUCGGUUCAUACAUACAGUAGAAACCACUGUGGCUGCCCUUAAUCCAGUGUGCUUAUAGGAAAUCAGUUAGCAGCUGACCAACAGAGGAUUGAGCAUCA
B17: chr10:74118286:74118577:+|3pUTR|ENSG00000035403|msi1|total|mutant (ssRNA)
RNA: GGGAGUUCUACAGUCCGACGAUCGUAUUCUCAAACACAGUUACACUUGUGCACCCUCUAUCCCAACCGGCAGACUGGGUUUCCCGCCCAUGGACUUCACAUAAGCUCAGAAUCCAAGUGAACACCCGCCAGACACUCUGCUCUCAACAGAGGAUUGAGCAUCA
B18: ENSG00000033178:stop:overlap|stop_codon|ENSG00000033178|stop_codon|NA|stop_codon (ssRNA)
RNA: GGGAGUUCUACAGUCCGACGAUCCUAUUGAAAUUUAUGGCUGUCCGAAUAUUUGUUUGUUAAUACAUAAGUGUUCUGUAUAUUAGUAUUCUCUUAUCCUUCACAUCCAGCUUUGCUACUCUGUGGCAUUAGACAACUUUUUUCCAACAGAGGAUUGAGCAUCA
B19: ENSG00000070961:be:win_2951|CDS|ENSG00000070961|bound_else_gene|NA|bound_elsewhere_windowed (ssRNA)
RNA: GGGAGUUCUACAGUCCGACGAUCUUUUCAACGAAAUAAAUGCCCGGAAAAUUCAUGGUGAAAGAAAUGUAUUCGAAGGAAUCUUUAACAAUGCCAUCUUCUGCACAAUUGUUUUAGGCACUUUUGUGGUACAGAUAAUAAUUGCAACAGAGGAUUGAGCAUCA
B20: chr1:160214333:160214525:+|3pUTR|ENSG00000162734|msi1|FALSE|unique (ssRNA)
RNA: GGGAGUUCUACAGUCCGACGAUCCUACAGUGUUUUCCUUUGCACCGAUCCCCACCCCAAUUCAAUCCCGGAAGGGACUUACUUAGGAAACCCUUCUUUACUAGAUAUCCUGGCCCCCUGGGCUUGUGAACACCUCCUAGCCACCAACAGAGGAUUGAGCAUCA
B21: chr5:24509697:24509799:-|CDS|ENSG00000040731|unk|FALSE|unique (ssRNA)
RNA: GGGAGUUCUACAGUCCGACGAUCACUCGACUAUGAGAGCCGAAGACUUUAUACUCUGAAAGUCGAAGCAGAAAACACCCAUGUAGAUCCCCGUUUUUAUUACCUAGGACCAUUUAAAGAUACUACCAUAGUGAAAAUCUCUAUCAACAGAGGAUUGAGCAUCA
B22: ENSG00000198589:be:win_9001|3pUTR|ENSG00000198589|bound_else_gene|NA|bound_elsewhere_windowed (ssRNA)
RNA: GGGAGUUCUACAGUCCGACGAUCUUCUUCAGCACUAAUAUUUCUGGGAUUUAAAUAGUAAUGUUUAAAUUAUGGUAAAUGUAAUUUAAAACAUCUCAAUUAAGUCUGUCUAUCAAUAUUGUUCUUCAAGCAUGUUUUAGACCUCAACAGAGGAUUGAGCAUCA

This test concerns the target T1, UNK ZnF1-6 (called full-length). In words: nsRBNS (natural sequence RNA bind-n-seq); RBNS binding buffer (assumed for nsRBNS): 25 mM Tris pH 7.5, 150 mM KCl, 3 mM MgCl2, 0.01% Triton X-100, 500 ug/ml BSA, 20 U/ml SUPERase-In, 4 C; UNK is unkempt and MSI1 is Musashi-1; names of the RNAs are library labels; protein concentration not given here; high values mean tight binding.
The molecule B1 gave a binding signal of 3 enrichment R.
With B2 the figure was 8.46 enrichment R.
With B3 the figure was 1.61 enrichment R; with B4, 0.77 enrichment R; with B5, 0.544 enrichment R.
With B6 the figure was 0.578 enrichment R; with B7, 0.579 enrichment R; with B8, 5.21 enrichment R.
In turn, B9 had a binding signal of 1.04 enrichment R.
The result for B10 reads 0.332 enrichment R; that for B11, 0.443 enrichment R; that for B12, 0.211 enrichment R.
Regarding B13, the binding signal is 0.734 enrichment R.
With B14 the figure was 0.43 enrichment R; with B15, 37.4 enrichment R.
The result for B16 reads 0.532 enrichment R.
With B17 the figure was 0.532 enrichment R; with B18, 0.919 enrichment R.
For B19, the binding signal was 0.295 enrichment R.
The result for B20 reads 2.33 enrichment R; that for B21, 1.94 enrichment R.
B22 gave a binding signal of 0.446 enrichment R.
